Positions count from the first letter of the chain named.
B1: IL-2/anti-PD-L1 Fab EP412/EP325/EP205 (bispecific antibody, human IgG1, lambda, L234A L235A)
chain: APASSSTKKTQLQLEHLLLDLQMILNGINNYKNPLLTDMLTRKFYMPKKATELKHLQCLEEELKPLEEVLNLAQSKNFHLRPRDLISNINVIVLELKGSETTFMCEYADETATIVEFLNRWITFSQSIISTLT[letters of human IgG1 Fc with L234A L235A P329G S354C T366W K409A (EU numbers) omitted]
heavy: QVQLVQSGAEVKKPGSSVKVSCKASGGTFSSYAISWVRQAPGQGLEWMGGIIPIFGTANYAQKFQGRVTITADESTSTAYMELSSLRSEDTAVYYCARDKWYGSAWRGDYWGQGTLVTVSSASTKGPSVFPLAPSSKSTSGGTAALGCLVKDYFPEPVTVSWNSGALTSGVHTFPAVLQSSGLYSLSSVVTVPSSSLGTQTYICNVNHKPSNTKVDKKVEPKSCDKTHTCPPCPAPEAAGGPSVFLFPPKPKDTLMISRTPEVTCVVVDVSHEDPEVKFNWYVDGVEVHNAKTKPREEQYNSTYRVVSVLTVLHQDWLNGKEYKCKVSNKALGAPIEKTISKAKGQPREPQVCTLPPSRDELTKNQVSLSCAVKGFYPSDIAVEWESNGQPENNYKTTPPVLDSDGSFKLVSKLTVDKSRWQQGNVFSCSVMHEALHNHYTQKSLSLSPGK
light: QSVLTQPPSASGTPGQRVTISCSGSYSNIGSNFVNWYQQLPGTAPKLLIHFNNQRPSGVPDRFSGSRSGTSASLAISGLQSEDEADYFCSTWDDSLKGPIFGGGTKLTVLGQPKANPTVTLFPPSSEELQANKATLVCLISDFYPGAVTVAWKADGSPVKAGVETTKPSKQSNNKYAASSYLSLTPEQWKSHRSYSCQVTHEGSTVEKTVAPTECS
B2: IL-2/anti-PD-L1 Fab EP415/EP325/EP205 (bispecific antibody, human IgG1, lambda, L234A L235A)
chain: APASSSTKKTQLQLEHLLLDLQMILNGINNYKNPLLTDMLTRKFYMPKKATELKHLQCLEEELKPLEEVLNLAQSKNFHLTARDAIDNINVIVQELKGSETTFMCEYADETATIVEFLNRWITFSQSIISTLT[letters of human IgG1 Fc with C220S L234A L235A P329G S354C T366W K409A (EU numbers) omitted]
heavy: B1 heavy
light: B1 light
B3: IL-2/anti-PD-L1 Fab EP418/EP325/EP205 (bispecific antibody, human IgG1, lambda, L234A L235A)
chain: B2 chain with A82P, N90R, V93I, Q94L
heavy: B1 heavy
light: B1 light
B4: anti-PD-L1 Fab/IL-2 fusion EP362/EP365/EP205 (bispecific antibody, human IgG1, lambda, L234A L235A)
heavy 1: QVQLVQSGAEVKKPGSSVKVSCKASGGTFSSYAISWVRQAPGQGLEWMGGIIPIFGTANYAQKFQGRVTITADESTSTAYMELSSLRSEDTAVYYCARDKWYGSAWRGDYWGQGTLVTVSSASTKGPSVFPLAPSSKSTSGGTAALGCLVKDYFPEPVTVSWNSGALTSGVHTFPAVLQSSGLYSLSSVVTVPSSSLGTQTYICNVNHKPSNTKVDKKV[letters of human IgG1 Fc with L234A L235A P329G S354C T366W K409A (EU numbers) omitted]
heavy 2: QVQLVQSGAEVKKPGSSVKVSCKASGGTFSSYAISWVRQAPGQGLEWMGGIIPIFGTANYAQKFQGRVTITADESTSTAYMELSSLRSEDTAVYYCARDKWYGSAWRGDYWGQGTLVTVSSASTKGPSVFPLAPSSKSTSGGTAALGCLVKDYFPEPVTVSWNSGALTSGVHTFPAVLQSSGLYSLSSVVTVPSSSLGTQTYICNVNHKPSNTKVDKKVEPKSCDKTHTCPPCPAPEAAGGPSVFLFPPKPKDTLMISRTPEVTCVVVDVSHEDPEVKFNWYVDGVEVHNAKTKPREEQYNSTYRVVSVLTVLHQDWLNGKEYKCKVSNKALGAPIEKTISKAKGQPREPQVCTLPPSRDELTKNQVSLSCAVKGFYPSDIAVEWESNGQPENNYKTTPPVLDSDGSFKLVSKLTVDKSRWQQGNVFSCSVMHEALHNHYTQKSLSLSPGKGGGGSGGGGSGGGGSGGGGSAPASSSTKKTQLQLEHLLLDLQMILNGINNYKNPKLTVMLTFKFSMPKKATELKHLQCLEEELKPLEEVLNLAQSKNFHLTPRDAISNIRVIIQELKGSETTFMCEYADETATIVEFLNRWITFSQSIISTLT
light: B1 light
B5: anti-PD-L1 Fab/IL-2 fusion EP362/EP364/EP205 (bispecific antibody, human IgG1, lambda, L234A L235A)
heavy 1: B4 heavy 1
heavy 2: B4 heavy 2 with V509R, S516Y, P553A, I557V, S558D, I560M
light: B1 light

Target: PD-L1 on PD-L1 aAPC/CHOK1 cells (Promega J1250)
Assay: cell-based or functional assay

Row | Binder | NFAT reporter EC50 [nM]
1 | B1 | 2.52
2 | B2 | 2.48
3 | B3 | 1.87
4 | B4 | 0.362
5 | B5 | 0.356
